The whole screen tested about 310,000 compounds, of which about 14,000 (4.5%) showed an effect of 50% or more. The effect is printed as a negative number. The list shows a part of the results.
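Also: peak tail current of the secondary pulse compared with the same well before compound.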

Chain of human ether-à-go-go-related gene (hERG) potassium channel (Q12809 whole entry, looked up): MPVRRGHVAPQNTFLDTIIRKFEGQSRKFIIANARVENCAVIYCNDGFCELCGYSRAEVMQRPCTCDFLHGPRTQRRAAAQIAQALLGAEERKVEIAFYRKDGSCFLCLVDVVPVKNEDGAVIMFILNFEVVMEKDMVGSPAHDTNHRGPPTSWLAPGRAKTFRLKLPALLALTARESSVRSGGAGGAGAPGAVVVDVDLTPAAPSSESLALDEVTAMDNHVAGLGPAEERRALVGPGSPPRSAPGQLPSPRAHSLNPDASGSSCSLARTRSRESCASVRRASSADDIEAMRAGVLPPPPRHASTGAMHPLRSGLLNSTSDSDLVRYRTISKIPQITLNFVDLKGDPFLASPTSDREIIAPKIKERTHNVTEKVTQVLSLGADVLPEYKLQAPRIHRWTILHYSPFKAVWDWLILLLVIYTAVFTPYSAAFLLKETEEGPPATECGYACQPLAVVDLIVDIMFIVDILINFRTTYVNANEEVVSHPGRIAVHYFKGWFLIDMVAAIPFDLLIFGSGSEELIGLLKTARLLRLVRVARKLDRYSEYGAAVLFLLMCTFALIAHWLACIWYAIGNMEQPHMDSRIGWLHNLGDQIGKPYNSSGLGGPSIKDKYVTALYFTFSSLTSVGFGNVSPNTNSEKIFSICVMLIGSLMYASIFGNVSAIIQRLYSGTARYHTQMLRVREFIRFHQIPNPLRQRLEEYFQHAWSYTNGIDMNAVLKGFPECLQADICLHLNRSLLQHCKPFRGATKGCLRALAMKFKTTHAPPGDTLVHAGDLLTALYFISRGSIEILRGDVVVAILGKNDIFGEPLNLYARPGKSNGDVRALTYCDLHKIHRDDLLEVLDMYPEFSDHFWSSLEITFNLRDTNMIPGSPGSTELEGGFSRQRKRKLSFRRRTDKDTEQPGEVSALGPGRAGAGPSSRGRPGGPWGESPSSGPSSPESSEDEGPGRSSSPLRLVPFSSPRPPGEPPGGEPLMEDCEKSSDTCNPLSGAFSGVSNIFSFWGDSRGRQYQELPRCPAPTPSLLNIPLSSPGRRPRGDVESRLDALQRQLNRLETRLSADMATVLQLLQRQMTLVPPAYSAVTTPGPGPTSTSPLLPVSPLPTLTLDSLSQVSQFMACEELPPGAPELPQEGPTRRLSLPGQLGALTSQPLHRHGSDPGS

This test concerns the target human ether-à-go-go-related gene (hERG) potassium channel (human, UniProt Q12809). In words: primary screen, population patch clamp on CHO cells stably expressing hERG.
Turning to `CC(=O)Nc1ccc(NC(=O)C23CC4CC(C2)CC(n2cnc(Br)n2)(C4)C3)cc1`, the “hERG current change (%, negative = inhibition) at 10uM” value is -63.4%.

`Cc1cc(C)nc(NS(=O)(=O)c2ccc(N/C=C\C(=O)c3cccs3)cc2)n1`: the “hERG current change (%, negative = inhibition) at 10uM” value was determined as 13.6%.

With `CC(C)C(=O)Nc1ccc2c(c1)nc(CCN1CCN(C)CC1)n2C`, the “hERG current change (%, negative = inhibition) at 10uM” value was -3.19%.

Turning to `CCn1cc(C2=NC(CC(C)C)CO2)c2ccccc21` (centres unmarked), the “hERG current change (%, negative = inhibition) at 10uM” value is -5.43%.

Take `Cc1cccn2cc(CNS(=O)(=O)c3cccc(F)c3)nc12`: the “hERG current change (%, negative = inhibition) at 10uM” value is -22.4%.

For the compound `CCOC(=O)c1sc2nc(SCC#N)n(CCCN3CCCC3=O)c(=O)c2c1C`, the “hERG current change (%, negative = inhibition) at 10uM” value is -62.9%.

`N#Cc1ccc(-c2ccc(F)cc2)nc1SCC(=O)Nc1sc2c(c1C#N)CCC2`: the “hERG current change (%, negative = inhibition) at 10uM” value was 4.57%.

Regarding `O=C(C1CCCN(S(=O)(=O)c2cccc3cccnc23)C1)N1CCN(c2ccccc2F)CC1` (centres unmarked), the “hERG current change (%, negative = inhibition) at 10uM” value is -75.5%.

For the compound `CC12CCC(=O)N1C(C(=O)NCCN1C(=O)S/C(=C\c3ccccc3Cl)C1=O)CS2` (centres unmarked), the “hERG current change (%, negative = inhibition) at 10uM” value is recorded as -22.6%.

`CC(=O)c1c(C)n(C)c2ccc(O)cc12`: the “hERG current change (%, negative = inhibition) at 10uM” value was determined as 18.8%.

In the case of `CC(C)c1ccc(NC(=O)NC2(C(=O)NCc3cccnc3)CCCCC2)cc1`, the “hERG current change (%, negative = inhibition) at 10uM” value came to 5.45%.

Turning to `CCCNC(=O)C/C(C)=N/NC(=O)C(=O)Nc1ccccn1`, the “hERG current change (%, negative = inhibition) at 10uM” value is 29.4%.

Consider `NS(=O)(=O)c1ccc(NNC(=O)c2sccc2Cl)cc1`, for which the “hERG current change (%, negative = inhibition) at 10uM” value is reported as 5.33%.

Regarding `CCN(CC)C(C)C(=O)NCC1(c2ccccc2)CCOCC1.Cl` (centres unmarked), the “hERG current change (%, negative = inhibition) at 10uM” value is reported as -6.15%.

On to `O=C1CSC(=S)N1/N=C/c1ccc(O)c(O)c1O`, for which the “hERG current change (%, negative = inhibition) at 10uM” value amounted to 8.9%.

Take `Cc1cc(=O)oc2cc(OCC(=O)NCC3CCCO3)ccc12` (centres unmarked): the “hERG current change (%, negative = inhibition) at 10uM” value is -1.81%.

In the case of `COC(=O)c1ccc2c(c1)NC(=O)C(N1CCCCC1)S2` (centres unmarked), the “hERG current change (%, negative = inhibition) at 10uM” value is listed as -19.3%.

Take `O=[N+]([O-])c1ccc(Cl)c(CN2CCSCC2)c1`: the “hERG current change (%, negative = inhibition) at 10uM” value is given as -5.97%.

With `COc1cc(/C=C2\C(=O)N(C)C(=S)N2C)ccc1O`, the “hERG current change (%, negative = inhibition) at 10uM” value was 8.95%.

On to `Clc1ccc(Cn2nnc(-c3ccc(CN4CCOCC4)cc3)n2)cc1`, for which the “hERG current change (%, negative = inhibition) at 10uM” value was -21.5%.

`CC(C)n1c(SCc2ccccc2F)nc2c1c(=O)n(C)c(=O)n2C`: the “hERG current change (%, negative = inhibition) at 10uM” value is -14.1%.

As for `CN(C)S(=O)(=O)c1ccc(C(=O)Nc2cccc(C(=O)O)c2)cc1`, the “hERG current change (%, negative = inhibition) at 10uM” value is -2.66%.

Turning to `CCOC(=O)N1CCN(CC(O)COc2ccc(C)c(C)c2)CC1.Cl` (centres unmarked), the “hERG current change (%, negative = inhibition) at 10uM” value was 6.64%.

As to `Cc1ccc(CN2CC(C(=O)Nc3ccncc3)CC2=O)cc1` (centres unmarked), the “hERG current change (%, negative = inhibition) at 10uM” value was found to be 7.48%.

In the case of `CCC(C)(C)n1nnnc1C(c1ccc(O)c(OC)c1)N1CCN(c2nc3ccccc3s2)CC1` (centres unmarked), the “hERG current change (%, negative = inhibition) at 10uM” value is on record as -41.7%.

Consider `CC1CN(C(=O)CS(=O)(=O)Cc2ccc(Cl)cc2)CC(C)O1` (centres unmarked), for which the “hERG current change (%, negative = inhibition) at 10uM” value was found to be 30.2%.

Consider `CC1(C)Cc2c(C#N)c(NCC3CCCO3)nc(-c3ccco3)c2CO1` (centres unmarked), for which the “hERG current change (%, negative = inhibition) at 10uM” value is recorded as -38.7%.

Consider `CN(C)C(CNC(=O)c1ccc(C(F)(F)F)cc1)c1ccco1` (centres unmarked), for which the “hERG current change (%, negative = inhibition) at 10uM” value amounted to 9.49%.

For the compound `Cc1cc2c(N=NC(=O)C3CC3c3ccccc3)c(O)[nH]c2cc1Br` (centres unmarked), the “hERG current change (%, negative = inhibition) at 10uM” value is reported as 0.687%.

Regarding `CCOc1ccc(CCNC(=O)C2CCCN(c3nn4c(=O)cc(C)nc4s3)C2)cc1` (centres unmarked), the “hERG current change (%, negative = inhibition) at 10uM” value is -24.2%.

For `CCc1cccc(C)c1NC(=S)N(CCN(C)C)Cc1cccs1`, the “hERG current change (%, negative = inhibition) at 10uM” value is -8.68%.

Regarding `Cc1nc(Nc2ccc(S(N)(=O)=O)cc2)sc1-c1ccccc1`, the “hERG current change (%, negative = inhibition) at 10uM” value was determined as 12.9%.

With `COc1ccc(NC(=O)CCNC(=O)C2CCN(S(=O)(=O)c3ccc(OC)cc3)CC2)cc1`, the “hERG current change (%, negative = inhibition) at 10uM” value is 0.671%.

Turning to `Cc1ccc(/C=C/C2=NN(C)C(=O)CC2)cc1`, the “hERG current change (%, negative = inhibition) at 10uM” value was determined as 4.37%.

Turning to `COc1ccc(/C=N/n2cnc3c([nH]c4ccc(F)cc43)c2=O)cc1CSc1ccccn1`, the “hERG current change (%, negative = inhibition) at 10uM” value is on record as 20.6%.

Turning to `O=C(COC(=O)c1cc(-c2cccc3ccccc23)nc2ccccc12)NC1CCS(=O)(=O)C1` (centres unmarked), the “hERG current change (%, negative = inhibition) at 10uM” value was -19.5%.

For the compound `Cc1cc(N)n2nc(C)c(-c3ccccc3)c2n1`, the “hERG current change (%, negative = inhibition) at 10uM” value is -21.9%.

Turning to `Br.CNCCc1nc(N)n[nH]1`, the “hERG current change (%, negative = inhibition) at 10uM” value was 11.8%.

Consider `CCP(=O)(CC)C(C)(C)CP(=O)(c1ccccc1)c1ccccc1`, for which the “hERG current change (%, negative = inhibition) at 10uM” value is on record as -3.41%.

Regarding `Cc1cc(NC(=O)CCC(=O)N(Cc2ccco2)C(C(=O)NC2CCCCC2)c2cccs2)no1` (centres unmarked), the “hERG current change (%, negative = inhibition) at 10uM” value is on record as -20.9%.

As to `CC(C)(C)c1cc(C(C)(C)C)cc(S(=O)(=O)CCc2ccccn2)c1`, the “hERG current change (%, negative = inhibition) at 10uM” value was -24.8%.

For the compound `CCOc1ccc(C(C)=O)cc1Cc1c(O)[nH]c(=S)[nH]c1=O`, the “hERG current change (%, negative = inhibition) at 10uM” value came out at 5.77%.

For `O=C(Nc1nccs1)c1cc2cc(Cl)ccc2oc1=O`, the “hERG current change (%, negative = inhibition) at 10uM” value is 6.82%.

As to `COc1cc(/C=N/NC(=O)C(=O)/C=C2\NC(C)(C)Cc3ccccc32)ccc1O`, the “hERG current change (%, negative = inhibition) at 10uM” value is -2.55%.

As for `Cc1ccc(-n2ccc(=O)c(C(=O)Nc3ccc(S(=O)(=O)Nc4nccc(C)n4)cc3)n2)cc1`, the “hERG current change (%, negative = inhibition) at 10uM” value is given as -9.21%.

As to `Cc1ccc(C(=O)N2CCC(n3nccc3NC(=O)c3ccccc3C)CC2)cn1`, the “hERG current change (%, negative = inhibition) at 10uM” value is recorded as -43.2%.

Consider `COC(=O)c1c(C)[nH]c(C(=O)COc2ccc3ccc(=O)oc3c2)c1C`, for which the “hERG current change (%, negative = inhibition) at 10uM” value is 11.5%.

For the compound `CCOc1ccc(NC(=O)Nc2cc(C)ccc2OC)cc1`, the “hERG current change (%, negative = inhibition) at 10uM” value is on record as 3.71%.

Consider `O=C(CSc1nnnn1-c1cccc2ccccc12)Nc1ccc(C(=O)O)cc1`, for which the “hERG current change (%, negative = inhibition) at 10uM” value came out at 10.5%.

Regarding `Cc1ccc(OCc2nnc(SC3CCc4ccccc4C3=O)n2C)cc1` (centres unmarked), the “hERG current change (%, negative = inhibition) at 10uM” value was -36.8%.

As to `CCOC(=O)c1cc2c(ccc3ccccc32)oc1=O`, the “hERG current change (%, negative = inhibition) at 10uM” value is -32%.

As to `CCn1nnnc1SCC(=O)c1ccc(NC(C)=O)cc1`, the “hERG current change (%, negative = inhibition) at 10uM” value stood at 0.37%.

Turning to `Cc1ccc(C)c(Cn2nnc3c(=O)[nH]c(C4CCCN(S(=O)(=O)Cc5ccccc5)C4)nc32)c1` (centres unmarked), the “hERG current change (%, negative = inhibition) at 10uM” value was determined as 17%.

`CNC(=S)NN(c1ccccc1)c1ccccc1`: the “hERG current change (%, negative = inhibition) at 10uM” value turned out to be 2.18%.

Take `CCOC(=O)C1=C(C)OC2(O)c3ccccc3C(=O)C12O` (centres unmarked): the “hERG current change (%, negative = inhibition) at 10uM” value is 11.1%.

With `O=C(Cn1c(=O)c(=O)n(Cc2ccccc2)c2ccc(Cl)cc21)NCC1CCCO1` (centres unmarked), the “hERG current change (%, negative = inhibition) at 10uM” value was found to be 31.4%.
